The RNAGym collection of RNA variant scans (doi:10.1101/gad.245936.114)
This sample is rich in variants without activity.

B1: tRNA (parent)
chain: CUCUCGGUAGCCAAGUUGGUUUAAGGCGCAAGACUUUAAUUUAUCACUACGAAAUCUUGAGAUCGGGCGUUCGACUCGCCCCCGGGAGAUUUUUUCCUCGAGCAA

Variants of: B1
Assay: nonsense suppression (GFP-seq) (ratio to wild type); higher = more function; SUP4oc tRNA, yeast GFP reporter sort-seq
Summary of the method: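 Each variant's nonsense suppression (GFPSEQ) is a cell-share-weighted bin median GFP/RFP relative to the unmutated parent tRNA. Yeast with genome-integrated tRNA variants from a ~3% random-mutation library, a galactose-driven GFP ochre reporter and RFP were grown in raffinose/galactose medium with 80 mg/L adenine, then sorted into GFP/RFP bins for Illumina sequencing. Variants needed ≥100 reads and ≥30 cells.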

CUCUCGGUAGCCAAGUUGGUUUAAGGUACAAGACAUUAAUUUAUCACUACGAAAUCUUGAGAUCGGGCGUUCGACUCGCCCCAGGGAGAUUUUUUCCUCGAGCAA and CUCUCGGUAGCCAAGUUGGUUUAAGGUCCUAGACUUUAAUUUAUCACUACGAAAUCUUGAGAUCGGGCGUUCGACUCGCCCCCGUGAGAUUUUUUCCUCGAGCAA cannot be ordered by nonsense suppression: at most 0.026 for the first, at most 0.026 for the second.

CUCUCGGUAGCCAAGUUGGUUUAAGGUCCAAGACUUUAAUUUAUCACUACGAAAUAUUGAGAUCGGGCGUUCGACUCGCCCCCGGGAGAUUUUUUCCUCGAGCAA and CUCUCGGUAGCCAAGUUGGUUUAAGGUCCAAGACUUUAAUUUAUCACUACGAAAUCUUGAGAUCGUGCGUUCGACUCGCCCCCGGGAGAUUUUUUCCUCGAGCAA cannot be ordered by nonsense suppression: at most 0.026 for the first, at most 0.026 for the second.

CUCUCGGUAGCCAAGUUGGUUUAAGGUUCAAUAUUUUAAUUUAUCACUACGAAAUCUUGAGAUCGGGCGGUCGACUCCCCCCCGGGAGAUUUUUUCCUCGAGCAA and CUCUCGGUAGCCAAGUUGGUUUAAGGUUCAAGACUUUAAUUUAUCACUACGAAAUCUUGAGAUCGGGCAUUCGACUCGCCCCCGGGAGAUUUUUUCCUCGAGCAA cannot be ordered by nonsense suppression: at most 0.026 for the first, at most 0.026 for the second.

CUCUCGGUAGCCAAGUUGGUUUAAGGUGCAAAACUUUAAUUUAUCACUACGAAAUCUUGAGAUCGGGCGUUCGACUCGCCCCCGGGAGAUUUUUUCCUCGAGCAA and CUCUCGGUAGCCAAGUUGGUUUAAGGUGCAAAACUUUAAUUUAUCACUACGAAAUCUUGAGAUCGGGCGUUCGACUCGACCCCGGGAGAUUUUUUCCUCGAGCAA cannot be ordered by nonsense suppression: at most 0.026 for the first, at most 0.026 for the second.

CUCUCGGUAGCCAAGUUGGUUUAAGGUGCAAGACUUUAAUUUAUCACUACGAAAUCUUAAGAUCGGGCGUUCGACUCGCCCCCGGGAGAUUUUUUCCUCGAGCAA and CUCUCGGUAGCCAAGUUGGUUUAAGGUGCAAGACUUUAAUUUAUCACUACGAAAUCUUAAGAUCGGGCGUUCGACUCGGCCCCGCGAGAUUUUUUCCUCGAGCAA cannot be ordered by nonsense suppression: at most 0.026 for the first, at most 0.026 for the second.

CUCUCGGUAGCCAAGUUGGUUUAAGGUGCAAGACUUUAAUUUAUCACUACGAAAUCUUAAGAUCGGGCUUUCCACUUUCCCCCGGGAGAUUUUUUCCUCGAGCAA and CUCUCGGUAGCCAAGUUGGUUUAAGGUGCAAGACUUUAAUUUAUCACUACGAAAUCUUUCGAUCGGGCGUUCGACUCGCCCCCGGGAGAUUUUUUCCUCGAGCAA cannot be ordered by nonsense suppression: at most 0.026 for the first, at most 0.026 for the second.

CUCUCGGUAGCCAAGUUGGUUUAAGGUGCAAGACUUUAAUUUAUCACUACGAAAUCUUGAAAUCGGGCGUUCGACUCGCCCCCGGGAGAUUUUUUCCUCGAGCAA and CUCUCGGUAGCCAAGUUGGUUUAAGGUGCAAGACUUUAAUUUAUCACUACGAAAUCUUGAUAUCGGGCGUUCAACUCGCCCCCGGGAGAUUUUUUCCUCGAGCAA cannot be ordered by nonsense suppression: at most 0.026 for the first, at most 0.026 for the second.

CUCUCGGUAGCCAAGUUGGUUUAAGGUGCAAGACUUUAAUUUAUCACUACGAAAUCUUGAGAUCGGACGUUCGACUCGCCCCCGGGAGAUUUUUUCCUCGAGCAA and CUCUCGGUAGCCAAGUUGGUUUAAGGUGCAAGACUUUAAUUUAUCACUACGAAAUCUUGAGAUCGGGCCUUCGACUCGCCCCCGGGAGAUUUUUUCCUCGAGCAA cannot be ordered by nonsense suppression: at most 0.026 for the first, at most 0.026 for the second.

CUCUCGGUAGCCAAGUUGGUUUAAGGUGCAAGACUUUAAUUUAUCACUACGAAAUCUUGAGAUCGGGCCUUCGACUCACCCCCGGGAGAUUUUUUCCUCGAGCAA and CUCUCGGUAGCCAAGUUGGUUUAAGGUGCAAGACUUUAAUUUAUCACUACGAAAUCUUGAGAUCGGGCUUUCGACUCGCCCCCGGGAGAUUUUUUCCUCGAGCAA cannot be ordered by nonsense suppression: at most 0.026 for the first, at most 0.026 for the second.

CUCUCGGUAGCCAAGUUGGUUUAAGGUGCAAGACUUUAAUUUAUCACUACGAAAUCUUGAGAUCGGGCGUUCGACUCGCCCCCCGGAGAUUUUUUCCUCGAGCAA and CUCUCGGUAGCCAAGUUGGUUUAAGGUGCAAGACUUUAAUUUAUCACUACGAAAUCUUGAGAUCGGGCGUUCGACUCGCCCCCGGGAUAUUUUUUCCUCGAGCAA cannot be ordered by nonsense suppression: at most 0.026 for the first, at most 0.026 for the second.

CUCUCGGUAGCCAAGUUGGUUUAAGGUGCAAGACAUUAAUUUAUCACUACGAAAUCUAGAGAUCAGGCGUUCGACUCCCCCCCGGGAGAUUUUUUCCUCGAGCAA and CUCUCGGUAGCCAAGUUGGUUUAAGGUGCAAGACCUUAAUUUAUCACUACGAAAUCUUGAGAUCGGGCGUUCGGCUCGCCCCCGGGAGAUUUUUUCCUCGAGCAA cannot be ordered by nonsense suppression: at most 0.026 for the first, at most 0.026 for the second.

CUCUCGGUAGCCAAGUUGGUUUAAGGUGCAAGACCUUAAUUUAUCACUACGAAAUCUUGAUAUCGGGCGUUCGACUCGCCCCCGGGAGAUUUUUUCCUCGAGCAA and CUCUCGGUAGCCAAGUUGGUUUAAGGUGCAAGACUUUAAUUUAUCACUACGAAACAUUGAGAUCGGGCGUUCGACUCGCCCCCGGGAUAUUUUUUCCUCGAGCAA cannot be ordered by nonsense suppression: at most 0.026 for the first, at most 0.026 for the second.

CUCUCGGUAGCCAAGUUGGUUUAAGGUGCAAGACUUUAAUUUAUCACUACGAAAUCCUGAGAUCGGGCGUUCGACUUGCCCCCGGGAGAUUUUUUCCUCGAGCAA and CUCUCGGUAGCCAAGUUGGUUUAAGGUGCAAGACUUUAAUUUAUCACUACGAAAUCCUGAGAUCGGGCGUUCCACUCGCCCCCGGGAGAUUUUUUCCUCGAGCAA cannot be ordered by nonsense suppression: at most 0.026 for the first, at most 0.026 for the second.

For CUCUCGGUAGCCAAGUUGGUUUAAGGUGCAAGACUUUAAUUUAUCACUACGAAAUCUUGAGACCGGGCGUUCGACUCGCCCCCGGGAGAUUUUUUCCUCGAGCAA, the nonsense suppression was 0.0314.
